Laboratory results reported in the supplement of paper PMC5499739.
The full ranking holds about 16,000 sequences; the median of “Z-score” is about -0.37, and the highest 2% start at about 3.2. Some of the results follow.

The sequences below were run on RBM10 RRM1-ZnF (GST-tagged construct) (assay: RNAcompete 7-mer binding Z-score; higher = stronger binding preference).
Procedure: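 RNAcompete: 20 pmol GST-tagged RBM10 RNA-binding constructs were incubated with a designed RNA pool of about 241,000 sequences up to 41 nt (1.5 nmol) on glutathione beads for 30 min at 4 °C and washed. Bound RNAs were identified by microarray hybridisation. Each RNA 7-mer is scored by a one-sided Z-score of its enrichment, computed over probes that contain the 7-mer within longer pool sequences.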

Sequence | RNAcompete 7-mer binding Z-score
CCCGUUA | -0.626
UAAUUCC | -0.945
CCCCCAU | -0.448
GCCGGCA | -0.321
CCCACCA | -0.392
CUUUCUA | -0.88
AGGGGCG | 2.28
CUGUGGU | 0.449
AUAUGCG | 0.000789
CUGUUCA | -0.763
UUGCUGU | -0.444
UGUAGGU | 1.75
CUAGGCU | -0.441
UUAGGGC | 1.17
CUGUUAU | -0.818
ACCACGC | -0.685
UUAGAUC | -0.474
AUUACGC | -0.386
CCCGAAA | -0.75
ACGGGGG | 3.27
UUAACUU | -0.737
GUGGCUA | 0.595
UGAGAAA | 0.118
AGUCUGU | -0.539

Sequence | RNAcompete 7-mer binding Z-score
GAGGCUA | 0.115
UUGGGGU | 3.27
UUUUUAC | -0.73
AUGGGCU | 1.6
CGGAUCG | 0.472
UCUCCCA | -0.646
GUAUGGA | 2.12
UCGACUG | -0.581
AUGGGAU | 3.45
CUGCUGC | -0.435
GCGGUAA | 1.17
GAAAAAC | -0.00896
ACGGGAU | 2.02
ACCAACA | -0.642
CACUUCC | -0.688
UGGUCUU | -0.422
UCGUGCG | -0.0479
GUGGCGC | 0.992
GGCUUAC | -0.392
GAGGCUG | 0.888
AGAAACU | -0.617
UUAAAUC | -0.691
ACUCAGG | 0.0983
AAGUAAC | -0.119

Sequence | RNAcompete 7-mer binding Z-score
GCAACUC | -0.629
AGGCAAU | 0.056
GCAACGA | -0.214
UGCCCCC | -0.305
CCCGACC | -0.737
CUAGGGU | 2.25
AAGGAUA | 2.99
UCGAUGC | -0.422
UUCUUCG | -0.834
GCAUGUG | 0.859
GCUGUAC | -0.331
CUAUUAA | -0.763
CAUAGUU | -0.746
CUCAAAU | -0.698
AAAAGUG | 0.764
AUCGGAC | -0.0479
CGCAGAU | -0.389
UCUCCUA | -0.805
CUUCCGG | -0.529
CGAGUUC | -0.824
AGUAUCG | -0.0577
GGGCGUG | 2.66
GUUACCA | -0.279
CUGAACA | -0.704

Sequence | RNAcompete 7-mer binding Z-score
CGAAGUU | -0.236
GAACUUA | -0.428
UGUCCCC | -0.399
CUAAGAG | -0.178
GCACUAU | -0.412
AAGGACA | 2.43
AUCUUGA | -0.779
UGCUACU | -0.516
UCGGCGC | 0.0723
GCCUUGC | -0.73
UGACACG | 0.0138
AUAGCGG | 0.92
GAUGAAG | 2.77
UUAAUAG | -0.396
AUUCCUA | -0.756
CUCUGCA | -0.782
UGGUCGA | 0.612
CGAGCUU | -0.655
GACGCUU | -0.935
UCGGAAA | 0.368
GUAAUCU | -0.558
UGGACUG | 0.917
GAAAGAG | 1.42
UACGGCA | 0.186

Sequence | RNAcompete 7-mer binding Z-score
AGCUCAU | -0.837
UUUCAUC | -0.779
AGCUUCU | -0.805
AAAGCUU | -0.399
AAUUAUG | -0.116
GGGUUCG | 1.62
AAGGCGC | 0.644
GUUAAGA | 0.283
CCACAGG | -0.0382
UGCUGGA | 0.582
GCUAAAU | -0.331
GUGCCCU | -0.568
UUUCGCG | -0.668
ACGCACG | -0.386
CUCAACC | -0.629
CUGAGAG | 0.111
AGCGUUC | -0.552
CGGCACG | 0.264
CUCCCGA | -0.665
AUAUCUC | -0.701
CACUAAG | -0.266
CCACAAA | -0.623
AUGGAAG | 3.6
GCACAAU | -0.516

Sequence | RNAcompete 7-mer binding Z-score
UUGUUCA | -0.655
GAAGCGG | 2.47
AUCAAAC | -0.685
CGACCAA | -0.678
CUCGACC | -0.617
AGCCGCU | -0.789
CUCUCCU | -0.672
GAUUGUC | -0.425
GAGUUCA | -0.34
GGCCGAU | -0.249
AACUCUG | -0.776
GCGACGA | 0.0268
AUAACAA | -0.418
UAUUGUG | -0.0674
GGCCCGA | -0.5
CGUUUUU | -0.854
AUACUAA | -0.454
CAGGUGU | 1.24
GGGAGCC | 0.917
AACUGUU | -0.636
GGUGCGA | 1.7
UGGCGAG | 1.17
AUAUCGC | -0.48
GCUAAAA | 0.000789

Sequence | RNAcompete 7-mer binding Z-score
AUGUUGG | 1.5
ACGCGCA | -0.522
UAUAUGU | -0.337
CGCCGGC | -0.639
GCAAUCG | -0.275
AGAAACA | -0.236
GGGCUUG | 1.39
UGCUUAG | -0.347
CUUUCAC | -0.824
UUACUCU | -0.707
ACUAAGG | 0.787
CCAUACU | -0.815
UUUUCGU | -0.727
UGCUGUG | -0.119
ACGUUCG | -0.646
AGUGAUG | 0.833
AUACAUU | -0.617
UCCAUGA | -0.652
GGUCGUU | 0.456
ACUGGUC | -0.334
UCCCUGA | -0.6
CGACUUU | -0.811
UAUGCAU | -0.376
ACGUGAA | 0.134

Sequence | RNAcompete 7-mer binding Z-score
GAUUCAC | -0.629
GACGUGA | 0.433
CUCCAUA | -0.821
GUGUCAG | 0.309
AUUUCGU | -0.844
UUUGUGU | -0.269
CCUGGGG | 0.914
GCGGGCA | 2.09
UAACACU | -0.574
GAGCGGA | 3.98
AUGUAGC | 0.095
GCAGAUU | -0.243
CCGUCUA | -0.776
CUGGGCC | -0.0285
CGUGUCG | -0.266
UUACUUA | -0.704
UCGGAGA | 0.647
CAGCGUC | -0.623
CCAUGCC | -0.707
AAGAGGA | 2.2
CUCAGCA | -0.613
CGCGAGC | -0.526
UCAGAGC | -0.519
UCCGCCG | -0.617

Sequence | RNAcompete 7-mer binding Z-score
AUAGUUG | 0.28
GAUGGUG | 3.27
ACACUAA | -0.539
UUUCUCC | -0.808
CCGUAUC | -0.909
AAGUCAU | -0.522
CAUACAA | -0.61
ACCGUCG | -0.526
CAUUUCC | -1.04
CUUCCCA | -0.831
ACAUGCU | -0.503
UCGGCUU | -0.678
UCCUGCA | -0.766
GAACGAA | -0.0447
CUAUAUG | -0.487
AAUACAA | -0.399
UGUAAGC | -0.119
CGAUGGA | 1.27
UUAAACC | -0.782
ACAGUCU | -0.785
AAUCAGG | 0.943
UAAACAU | -0.555
GCGUUAC | -0.0869
UGCUGGG | 1.79

Sequence | RNAcompete 7-mer binding Z-score
GGCAUAU | 0.144
CUAUUGG | 0.0268
ACCUCUG | -0.792
AAUAAAA | -0.405
CGCUCGA | -0.565
CGGUCUA | -0.594
CUGGUCC | -0.467
CAACAUC | -0.5
UCGCACC | -0.665
GGGUCAA | 1.28
CGCCCCG | -0.11
UGGUUUA | 0.859
AGAGUCC | -0.617
GCACGGC | 0.095
UCUUCUA | -0.837
UGGGCCG | 1.11
UAAGGGG | 3.27
CACCGGG | 0.686
